Assay results published in patent US20050089932A1, “Novel proteins with targeted binding” (Avidia Research Institute, priority 2001, published 2005).

Experiments:
human IgE [1] = molecular target: T1, human IgE (Homo sapiens, UniProt P01854); assay: Phage binding to immobilized human IgE (panning, epitope mapping)
[2] = molecular target: human IgE / recombinant FcERI (Homo sapiens, UniProt P01854); assay: ELISA competition with recombinant human FcERI for IgE; assay type: binding
human IgE [3] = molecular target: T1, human IgE; assay: Biacore affinity measurements on immobilized human IgE; assay type: binding; details: IgE on CM5 chip

T1 sequence (P01854 1-427 limits assumed): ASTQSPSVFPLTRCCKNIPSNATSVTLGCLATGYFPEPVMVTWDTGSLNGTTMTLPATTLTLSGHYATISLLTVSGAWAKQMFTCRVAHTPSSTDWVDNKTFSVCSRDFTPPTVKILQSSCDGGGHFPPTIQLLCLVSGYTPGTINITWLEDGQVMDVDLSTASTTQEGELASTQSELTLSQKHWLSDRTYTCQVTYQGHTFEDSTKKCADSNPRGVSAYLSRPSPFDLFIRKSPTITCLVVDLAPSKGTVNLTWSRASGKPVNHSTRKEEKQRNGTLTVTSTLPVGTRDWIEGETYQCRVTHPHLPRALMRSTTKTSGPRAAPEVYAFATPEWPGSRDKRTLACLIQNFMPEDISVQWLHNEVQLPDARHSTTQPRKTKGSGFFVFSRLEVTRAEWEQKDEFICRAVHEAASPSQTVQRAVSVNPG
Sequence of human IgE / recombinant FcERI (P01854 1-427 limits assumed): as above

Q: For “IgE1: A-domain monomer binding human IgE, single sequence of the majority of the selected phage clones (CPANEFQCRNSSTCIPRRWLCDGDDDCGDGSDETGCSAPASEPPGSLSLQ)”, which “affinity for IgE relative to other sequences tested” value (human IgE [1]) is on record?
A: highest affinity of all the sequences tested

Q: And the “competition with α-Cε2 antibody” value (human IgE [1]; IgE immobilized via antibody against Cε2)?
A: not the α-Cε2 antibody

Q: What about the “competition with α-Cε3 antibody” value (human IgE [1]; IgE immobilized via antibody against Cε3) of the same substance?
A: competed with the α-Cε3 antibody

Q: What about the “competition with IgE receptor (FcERI) binding” value [2] of the same substance?
A: competes for the natural receptor epitope

Q: And the ka (human IgE [3])?
A: 2.4 × 10^4

Q: And the kd (human IgE [3])?
A: 2.7 × 10^−2
